The whole screen tested about 48,000 compounds, of which about 1,200 (2.5%) were called active. Inconclusive results (about 2%) are left out.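 How the source made its calls: active means activation of at least 60% and not above a set upper limit (about 1 call in 100 departs from these limits); inconclusive means activation of 40% to 60%, or above that upper limit; inactive means activation under 40%.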 This is one part of the list.

This passage reports activation results from PubChem BioAssay AID1346428 (National Center for Advancing Translational Sciences (NCATS), 2018).

UniProt O75388, sequence (O75388 whole entry, looked up, the tested form may be a part): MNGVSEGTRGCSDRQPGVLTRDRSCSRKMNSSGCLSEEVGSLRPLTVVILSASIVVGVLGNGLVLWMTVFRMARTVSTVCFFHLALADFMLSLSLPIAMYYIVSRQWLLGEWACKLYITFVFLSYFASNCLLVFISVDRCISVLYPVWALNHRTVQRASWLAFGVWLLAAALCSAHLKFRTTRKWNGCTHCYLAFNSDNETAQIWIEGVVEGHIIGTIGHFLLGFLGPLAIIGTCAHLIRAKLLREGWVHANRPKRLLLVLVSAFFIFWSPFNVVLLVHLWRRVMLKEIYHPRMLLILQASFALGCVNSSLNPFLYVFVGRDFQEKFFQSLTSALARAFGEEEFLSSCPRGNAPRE

This assay addresses Probable G-protein coupled receptor 32 (Homo sapiens) (UniProt O75388). Nature of the assay: qHTS for Agonists of Human Resolvin D1 Receptor DRV1. Further: 0% is about no effect. The note with it: CHO-K1 GPR32 beta-arrestin PathHunter luminescence, 90 min; at 76.9 µM; active compounds read high; zero percent set by DMSO-only wells. Summed up:
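Agonism was scored by beta-Gal fragment complementation (chemiluminescent read, 1 h detection at ambient temperature) reporting beta-arrestin binding to GPR32 in engineered CHO-K1 cells. Compound treatment lasted 90 min at 37 C, normalized to a DMSO basal control.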
(In general: Quantitative high-throughput screening tests each substance at several concentrations.)
On to `COc1cc(C=C2CCC/C(=C\c3ccc(O)c(OC)c3)C2=O)ccc1O`, for which the activation was inactive: -44.1%. On to `Cc1ccc(NC(=O)C(Cc2ccccc2)NS(=O)(=O)c2ccc3c(c2)oc(=O)n3C)c(Cl)c1` (stereo not drawn), for which the activation is inactive: 0.48%.

For `COc1ccccc1NC(=O)C1=C(C)Nc2nc(SCc3ccccc3)nn2C1c1ccccn1` (stereo not drawn), the activation was inactive: -4.54%.

As to `CCOc1ccccc1NC(=O)c1cn(C2CCCC2)c(=O)c2c1c1ccccc1n2C`, the activation is inactive: -14.6%. As to `CCN(CC)S(=O)(=O)c1ccc2c(c1)N(CC(=O)NCCc1ccc(OC)c(OC)c1)C(=O)CO2`, the activation is inactive: -17.3%. Consider `O=C(CCC(=O)N1CC2CCCN2c2ccccc21)NCc1ccccc1Cl` (stereo not drawn), for which the activation was inactive: -31.4%. Turning to `COc1ccc(-c2cc(=O)n3[nH]cnc3n2)cc1`, the activation was inactive: -1.66%. For `COc1ccc(C(=O)Nc2ccccc2C(=O)OCc2cc(=O)n3c4c(sc3n2)CCCC4)cc1`, the activation was inactive: -13.2%. Regarding `COc1cc(OC)c(Nc2nc3ccc(C)cc3n3nnnc23)cc1Cl`, the activation is inactive: -9.57%. With `Cc1nnc(NC(=O)CSc2nccn2-c2cccc(Cl)c2)s1`, the activation is inactive: -16.6%.

Regarding `CC1CCCN(S(=O)(=O)c2cc3c(cc2Cl)NC(=O)CO3)C1` (stereo not drawn), the activation was inactive: -7.8%.

With `Cc1nc2c(c(C)c1CCC(=O)Nc1cccc(C(F)(F)F)c1)c(=O)n(C)c(=O)n2C`, the activation was inactive: -9.16%. The figure for `COC(=O)c1c(NC(=O)c2cccc(OC)c2)sc2c1CCC(C(C)(C)C)C2` (stereo not drawn) is inactive: -1.37%; for `COc1ccccc1CNc1nc2nc(C)c(Cl)c(C)n2n1` it is inactive: 3.69%; for `COCCCNC(=O)c1ccc2c(c1)N=C(C)c1c(C)ccc(C)c1S2` it is inactive: 17.9%.

For the compound `Cc1cccc(-c2nc(SCC(=O)Nc3cc(C)on3)c3c(=O)n(C)c(=O)n(C)c3n2)c1`, the activation was inactive: -22.9%. In the case of `COc1ccc(N2CCN(c3ccc(-c4nc(-c5ccccc5C)no4)cc3[N+](=O)[O-])CC2)cc1` it was inactive: 9.48%; in that of `Cc1ccc(NC(=O)N2CCC(N3CCN(Cc4ccccc4)C(=O)C3=O)CC2)cc1Cl`, inactive: -8.27%; in that of `COc1cccc(NC(=O)c2sc3nc(N4CCOCC4)c4c(c3c2N)CC(C)(C)OC4)c1`, inactive: -6.25%. With `Cc1cccc(NC(=O)NCCn2c(=O)oc3ccc(C)cc32)c1`, the activation was inactive: -17.4%. Turning to `COc1cc(NC(=O)C(CC(C)C)NS(=O)(=O)c2ccc3c(c2)CCCC(=O)N3)cc(OC)c1` (stereo not drawn), the activation is inactive: -5.23%.

As to `CCOC(=O)Cn1c(=O)n(CC2CCCO2)c2nc(-c3ccc(OC)cc3OC)nc(C(N)=O)c21` (stereo not drawn), the activation is inactive: -5.4%. On to `Cc1ccc(CNC(=O)CCCn2c(=O)c3ccccc3n(CC(=O)C(C)(C)C)c2=O)cc1`, for which the activation is inactive: 7.35%. As for `Cc1oc2c(c1C(=O)NCc1cccc(Br)c1)C1=NCCN1C=N2`, the activation was inactive: -19.7%. As for `CCOc1ccc(NC(=O)Cn2c(=O)n(-c3ccc(C)cc3)c(=O)c3cc(OC)c(OC)cc32)cc1`, the activation was inactive: 1.67%. In the case of `COc1ccc(CNC(=O)c2cc3c(-c4ccccc4F)nn(C)c3s2)c(OC)c1` it was inactive: -18%. In the case of `COc1ccccc1N1CCN(C(=O)C2CCN(S(=O)(=O)c3cnc[nH]3)CC2)CC1`, the activation was inactive: 7.86%. In the case of `COc1ccc2oc(=O)c(-c3csc(/C(C#N)=C/c4ccc(F)cc4)n3)cc2c1` it was inactive: -19.9%. For `COc1ccc(CNC(=O)CN(c2ccc(C)cc2)S(=O)(=O)c2c(C)n[nH]c2C)cc1`, the activation was inactive: -2.41%. In the case of `O=c1onc2cnc3ccccc3n12`, the activation is active: 67.6%. For the compound `COc1cc(C)c(Cl)cc1S(=O)(=O)NCCc1c(C)[nH]c2ccccc12`, the activation is inactive: 22.9%. For `Cc1ccc(C)c(CN2C(=O)c3ccccc3S(=O)c3ccc(C(=O)NCc4ccccc4Cl)cc32)c1` (stereo not drawn), the activation was inactive: -4.15%. In the case of `COc1cccc(CNC(=O)CN2C(=O)N(c3cc(C)ccc3C)S(=O)(=O)c3ccccc32)c1OC`, the activation was inactive: -11.2%. For `CCOC(=O)c1c(NC(C)=O)c2c3c(sc2n1Cc1nc(-c2ccccc2OCC)oc1C)CCCC3`, the activation was inactive: -31.4%.

For the compound `COc1cccc(NC(=O)Cn2cc(C(=O)C3CCCCC3)c3ccccc32)c1`, the activation is inactive: -5.02%. For `Cc1ccc(C)c(N2CCN(C(=O)c3cnc4c(-c5ccccc5)c(C)nn4c3C)CC2)c1`, the activation is inactive: -36.1%. Take `Cc1ccc(/C=C(\C#N)C(=O)Nc2cc(C)ccc2C)cc1`: the activation is active: 98.1%. For the compound `CCN1CCC(N(Cc2cccc(OC)c2)C(=O)Nc2cccc(C(F)(F)F)c2)CC1`, the activation was inactive: 1.16%.

Turning to `CCN(CC)c1ccc(C(=O)NCc2ccc3c(c2)CCN3C(=O)c2ccccc2)cc1`, the activation was inactive: -8.37%.

Consider `CCOC(=O)c1c(NC(=O)c2cc(CC)on2)sc(C)c1C`, for which the activation was inactive: 7.48%. Take `O=C(Nc1ccc(-c2cc(C(F)(F)F)nn2-c2ccccc2)cc1)c1cccc(F)c1`: the activation is inactive: 4.64%. For the compound `Cc1ccc2c(c1)N(C(=O)CCC(=O)Nc1ccccc1Cl)CC(C)O2` (stereo not drawn), the activation is inactive: -13%. In the case of `O=c1cc(CSc2ncn[nH]2)[nH]c2c(Cl)cccc12` it was inactive: -9.89%; in that of `Brc1ccccc1-n1ncc2c1ncn1nc(Cc3ccccc3)nc21`, inactive: -20.8%. For `CCOC(=O)c1c(C)[nH]c(C)c1S(=O)(=O)NCC(=O)Nc1cccc(C(F)(F)F)c1`, the activation was inactive: 11.2%. For the compound `O=C(CSc1nnc(NC(=O)NC2CCCCC2)s1)Nc1ccccc1F`, the activation was inactive: -4.03%.

Turning to `O=C(CC1N=C2c3ccccc3N=C(SCc3ccc(Cl)cc3)N2C1=O)NCCc1ccccc1` (stereo not drawn), the activation is active: 73.8%.

As to `COc1ccc(OC)c(Nc2nc(-c3ccc(C)cc3)nc3ccccc23)c1`, the activation is inactive: -18.9%. The figure for `CC1CCCN(C(=O)Cn2c(=O)oc3cc(S(=O)(=O)N4CCCCC4)ccc32)C1` (stereo not drawn) is inactive: -2.85%.

As for `CCOc1ccc(C2c3c(-c4ccc(C)cc4)n[nH]c3C(=O)N2c2ccc(Cl)cc2)cc1` (stereo not drawn), the activation was inactive: -2.07%. Regarding `COc1ccccc1CNC(=O)CS(=O)(=O)c1cccc2nsnc12`, the activation was inactive: 28.3%. Consider `COc1cc(C(=O)NCC(c2ccc(N(C)C)cc2)N2CCc3ccccc32)cc(OC)c1OC` (stereo not drawn), for which the activation was inactive: -29.6%. In the case of `Cc1ccc(-c2nc3n(n2)C(c2ccccc2C)C=C(c2ccc(Cl)cc2)N3)cc1` (stereo not drawn), the activation is inactive: -3.9%. On to `COc1ccc(-c2oc3ncn4nc(-c5cccc(C)c5)nc4c3c2-c2ccc(OC)cc2)cc1`, for which the activation is inactive: -8.23%. For `Cc1ccc(CN2C(=O)c3ccccc3Sc3ccc(C(=O)NC4CCCCC4)cc32)cc1`, the activation was inactive: -0.288%.

Consider `COc1cc(C(=O)Nc2nnc(S(=O)(=O)N(C)c3ccccc3)s2)cc(OC)c1OC`, for which the activation is inactive: -12.4%. On to `COc1ccc(OC)c(NC(=O)CCn2cnnn2)c1`, for which the activation is inactive: 5.28%.

With `COc1ccc(CCNC(=O)c2cc(-c3ccc(C)cc3)nc3n[nH]c(-c4ccccc4)c23)cc1OC`, the activation was inactive: -7.91%.

As to `COc1ccc(CNC(=O)c2cc3c(=O)[nH]c4ccc(C)cc4c3s2)c(OC)c1`, the activation is inactive: -7.25%. Turning to `COC(=O)[C@@H]1CC2=CC(=O)CC[C@]2(C)[C@@]23O[C@@H]2C[C@@]2(C)[C@@H](CC[C@@]24CCC(=O)O4)[C@H]13`, the activation is inactive: 44.6%.

As for `O=C(NC1CC(=O)N(c2ccc(F)cc2)C1)c1cccs1` (stereo not drawn), the activation was inactive: -3.83%. In the case of `Cc1ccn2c(Nc3ccc(F)cc3)c(-c3ccc(C)o3)nc2c1` it was inactive: -16.8%; in that of `COc1cc(CN(C(=O)COc2ccc(Br)cc2)c2ccccn2)cc(OC)c1OC`, inactive: -0.412%.

On to `CN1CCN(C(c2ccccc2)c2ccccc2)CC1`, for which the activation is inactive: -7.31%.

In the case of `COc1ccc(CNC(=O)C2CCN(c3nc4ccccc4[nH]3)CC2)c(OC)c1`, the activation was inactive: -16.3%. On to `COc1cc2nc(SCc3ccc(Cl)cc3)n3nc(CCn4nc(C)cc4C)nc3c2cc1OC`, for which the activation is inactive: 6.68%. For the compound `COC(=O)c1cccc(NC(=O)C2CCN(S(=O)(=O)Cc3ccccc3)CC2)c1C`, the activation was inactive: 1.54%. Regarding `CCCCOc1ccc(OC(=O)c2sc3ncn(Cc4cccc(F)c4)c(=O)c3c2C)cc1`, the activation was inactive: 2.31%. Consider `Cc1nn(C(=O)c2ccc(Cl)cc2)c(C)c1Sc1ccc(Cl)cc1`, for which the activation is inactive: 45.9%. On to `CC(=O)c1sc2c(c1C)c(=O)n(-c1ccc(Cl)cc1)c(=O)n2Cc1cc(=O)n2cc(Cl)ccc2n1`, for which the activation is inactive: -11.4%. As for `CCCSc1nc2sc3c(c2c(=O)n1-c1ccccc1)CCC(C)C3` (stereo not drawn), the activation was inactive: 10%. On to `Cc1cc(NC(=O)CSc2nc(-c3ccccc3F)nc3c2c(=O)n(C)c(=O)n3C)no1`, for which the activation was inactive: -4.53%.

Take `Cc1ccc2oc(=O)c3cc(C(=O)N4CCN(c5ccccc5)CC4)sc3c2c1`: the activation was inactive: -18.7%. In the case of `CCCCCn1c(=O)[nH]c2cc(C(=O)Nc3cc(OC)cc(OC)c3)ccc2c1=O`, the activation is inactive: 2.95%.

For `Cc1cccc(CNC(=O)C2CCCN(S(=O)(=O)c3cn(C)cn3)C2)c1` (stereo not drawn), the activation is inactive: -9.66%. In the case of `COc1ccccc1CNC(=O)CCn1c(=O)c2ccccc2n(CC(=O)Nc2ccc(C)cc2)c1=O`, the activation was inactive: -4.2%.

Regarding `Cn1nnnc1SCCCNCc1ccc(-c2ccc(Br)cc2)o1`, the activation was inactive: -20.3%. For the compound `Cc1ccccc1CCNC(=O)c1ccc2c(c1)c(C)c(C)n2C`, the activation was inactive: -24.3%.

With `O=C(O)Cc1ccc(CCNS(=O)(=O)c2ccc(Cl)cc2)cc1`, the activation was inactive: -2.38%. As to `COC(=O)c1cc2oc3ccccc3c2n1Cc1cccc(C)c1`, the activation is inactive: 5.04%. In the case of `CN(C)S(=O)(=O)c1ccc2c(c1)N(CC(=O)NCc1ccccc1)C(=O)C1CCCCN21` (stereo not drawn) it was inactive: -21.3%. With `CCC1CN(C(=O)NCc2ccc(C)cc2)c2cc(C)ccc2O1` (stereo not drawn), the activation is inactive: -32.5%. `CCCCCNC(=O)c1c[nH]c2ccc(S(=O)(=O)N3CCC(C)CC3)cc2c1=O`: the activation is inactive: -19.2%.
